# Data from PubChem BioAssay AID1476 (National Center for Advancing Translational Sciences (NCATS), 2009).
# The campaign covered roughly 200,000 compounds. About 4,500 (2.2%) were called active. The inconclusive results got no clear call from the source; some entries with a clear call stand among them for comparison. The call rests on the fitted dose curve; in most records, active means well fitted inhibition curve with a large enough effect; inconclusive means small, poorly fitted or top-dose-only effect, or effect the other way; inactive means flat fitted curve, though single readings scatter. A potency beside an inconclusive call is a rough fit, not a confirmed value.
# Molecular target: Cruzipain (Trypanosoma cruzi) (UniProt P25779)
# Assay: qHTS Assay for Promiscuous and Specific Inhibitors of Cruzain (without detergent); further: nearly all actives have a fitted effect of over 40% in size;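 on max response, negative = inhibition: plate controls were enzyme without inhibitor for no effect and buffer without enzyme for full effect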
# Settings: purified cruzain, Z-FR-AMC fluorescence, no detergent
# Method in brief: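 Purified cruzain at 1.5 nM, pre-incubated 15 min with compound at room temperature in 100 mM sodium acetate pH 5.5, 5 mM DTT, 0.00005% Triton X-100. Reaction started with 2 uM Z-FR-AMC; AMC fluorescence increase over 60 s gives rate.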
# Potency means the concentration at half of the fitted maximal effect; tags describe the fitted curve by direction and shape.
# Sequence of UniProt P25779 (P25779 whole entry, looked up): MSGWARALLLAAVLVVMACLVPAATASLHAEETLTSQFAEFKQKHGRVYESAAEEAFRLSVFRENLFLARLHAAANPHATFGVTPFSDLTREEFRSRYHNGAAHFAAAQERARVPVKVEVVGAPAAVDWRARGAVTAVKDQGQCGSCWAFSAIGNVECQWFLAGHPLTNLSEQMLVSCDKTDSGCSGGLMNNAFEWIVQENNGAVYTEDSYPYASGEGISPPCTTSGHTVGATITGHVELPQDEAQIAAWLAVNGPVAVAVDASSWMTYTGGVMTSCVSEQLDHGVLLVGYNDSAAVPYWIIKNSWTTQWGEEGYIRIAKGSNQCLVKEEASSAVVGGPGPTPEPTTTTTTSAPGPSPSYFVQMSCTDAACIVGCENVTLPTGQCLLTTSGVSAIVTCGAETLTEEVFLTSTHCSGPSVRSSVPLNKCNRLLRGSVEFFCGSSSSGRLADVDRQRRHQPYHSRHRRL
SMILES,Potency,"max response, negative = inhibition"
CCOC(=O)C1=C(O)/C(=C/c2cn(CC(=O)N3CCCC3)c3ccccc23)SC1=Nc1ccccc1,"inconclusive: 20 µM [activator, partial curve]",
CC(C)Cn1c(SCC(=O)N2CCc3ccccc3C2)nc2cc(Cl)ccc2c1=O,"inconclusive: 25.1 µM [inhibitor, single point]",
Cc1ccc(NC(=O)N2CCC(C(=O)NCCC3=CCCCC3)CC2)cc1,"inconclusive: 39.8 µM [inhibitor, single point]",
Cc1cccc(N2CCN(C(=O)C3CCN(S(=O)(=O)c4cccc5cccnc45)CC3)CC2C)c1 (stereo not given),"inconclusive: 25.1 µM [activator, single point]",
CCOc1ccc(C(F)(F)F)cc1NC(=O)COc1ccc(C(F)(F)F)cc1[N+](=O)[O-],"inconclusive: 7.94 µM [inhibitor, full curve, poor fit]",
CCOC(=O)[C@H](CCc1ccccc1)N[C@@H](C)C(=O)N1[C@H](C(=O)O)C[C@H]2CCCC[C@@H]21,"inconclusive: 3.98 µM [activator, full curve]",
CC(C)CC(COCc1ccc(C(F)(F)F)cc1)N1CCN(C(=O)c2ccc(C(F)(F)F)cc2)CCC1=O (stereo not given),"inconclusive: 25.1 µM [activator, partial curve]",
CCCCn1c(NC(=O)c2ccc(Br)o2)c(C(=O)OCC)c2nc3ccccc3nc21,"inconclusive: 39.8 µM [activator, single point]",
CCCOc1ccc(NC(=O)CC2C(=O)N(c3cccc(OC)c3)C(=O)N2CCc2ccncc2)cc1 (stereo not given),"inconclusive: 39.8 µM [activator, single point]",
CCCS(=O)(=O)c1c(S(=O)(=O)CCC)c2c(N)cccn2c1C(=O)c1ccc(Br)cc1,"inconclusive: 25.1 µM [inhibitor, single point]",
N#C/C(=C/c1ccc(Oc2ccc([N+](=O)[O-])cn2)cc1)C(=O)N1CCOCC1,"inconclusive: 31.6 µM [activator, single point]",
Cc1cc(CNC(=O)[C@@H]2C[C@H]2[C@@H](NP(=O)(c2ccccc2)c2ccccc2)c2ccccc2)nn1C,,inactive: 3.42%
C[N+]1([C@H](CO)Cc2c[nH]c3ccccc23)Cc2ccccc2C1,,inactive: -1.32%
O=C(COC(=O)C1CCCO1)Nc1cccc(C(F)(F)F)c1 (stereo not given),"inconclusive: 31.6 µM [activator, single point]",
O=C(CCCCCn1c(=S)[nH]c2cc3c(cc2c1=O)OCO3)N1CCN(C(=O)c2ccco2)CC1,"inconclusive: 25.1 µM [inhibitor, single point]",
CON(C)c1nc(OCCNC(=O)OCc2ccc(Cl)cc2Cl)nc(N(C)C)n1,"inconclusive: 39.8 µM [activator, single point]",
Cc1ccc(NC(=O)CCn2nc(C)c3c(C)n(-c4ccccc4)nc3c2=O)cc1Cl,,inconclusive: 22% [activator]
CC(=O)Oc1ccc2ccccc2c1C(NC(=O)Cc1ccccc1)c1ccccc1Cl (stereo not given),"inconclusive: 39.8 µM [inhibitor, single point]",
COc1cc(CN(C(=S)NCC(=O)NC2CC2)C2CCCC2)cc(OC)c1OC,"inconclusive: 39.8 µM [activator, single point]",
COc1ccc(OCC(=O)N2CCN(C(=O)COc3ccc(Br)cc3)CC2)cc1,"inconclusive: 31.6 µM [activator, single point]",

SMILES,Potency,"max response, negative = inhibition"
O=C(CS(=O)(=O)c1cn(Cc2ccc(Cl)cc2)c2ccccc12)N1CCOCC1,"inconclusive: 31.6 µM [activator, single point]",
CCS(=O)(=O)c1ccc(C(=O)N2CCN(c3nc4c(OC)ccc(C)c4s3)CC2)cc1,"inconclusive: 31.6 µM [activator, partial curve]",
CC(=O)NCCn1c(SCc2cc(=O)n3cc(Cl)ccc3n2)nc2ccccc2c1=O,"inconclusive: 39.8 µM [activator, single point]",
Nc1nn(S(=O)(=O)c2cccc3nsnc23)cc1-c1ccc(Br)cc1,"inconclusive: 39.8 µM [inhibitor, single point]",
COc1ccc(N2CCN(C(=O)Cn3cnc4sc(C)c(S(=O)(=O)N5CCCCC5)c4c3=O)CC2)cc1,"inconclusive: 39.8 µM [activator, single point]",
Cc1ccc(Cn2c(=O)n(CCc3ccccc3)c(=O)c3sc4ccccc4c32)cc1,,inactive: 0.689%
COc1cc2c(cc1NC(=O)c1ccc(C(C)(C)C)cc1)CCCC2,"inconclusive: 39.8 µM [inhibitor, single point]",
COc1cc(OC)c2c(-c3cccc(-c4ccc(C#N)cc4)c3)cc(=O)oc2c1,"inconclusive: 7.08 µM [inhibitor, single point]",
CCOC(=O)N1CCc2c(sc(NCc3cc(OC)ccc3OC)c2C(=O)Nc2cc(OC)ccc2OC)C1,"inconclusive: 10 µM [activator, partial curve]",
CC(C)CC(NC(=O)C(NC(=O)OC(C)(C)C)C(C)C)C(=O)NC(CCC(=O)OCc1ccccc1)C(N)=O (stereo not given),"inconclusive: 12.6 µM [inhibitor, partial curve]",
CCc1ccc(CNC(=O)c2ccc3c(c2)c(C)c(C)n3Cc2ccccc2)cc1,active: 31.6 µM,
O=C(NC1CCCCC1)c1ccc(CSc2nc3ccncc3n2Cc2cccc(F)c2)cc1,"inconclusive: 39.8 µM [activator, single point]",
COc1cccc2cc3c(=O)n(-c4ccccc4)nc-3oc12,"inconclusive: 39.8 µM [inhibitor, single point]",
COc1ccc(-c2ncccc2OC(=O)C23CC4CC(CC(C4)C2)C3)cc1OC,"inconclusive: 25.1 µM [activator, single point]",
O=C(CSc1nc2c([nH]c3ccccc32)c(=O)n1-c1ccccc1)Nc1cccc(C(F)(F)F)c1,"inconclusive: 31.6 µM [inhibitor, single point]",
COc1ccc(N2CCN(C(=O)c3ccc(OCc4c(C)noc4C)c(OC)c3)CC2)cc1,"inconclusive: 31.6 µM [activator, single point]",
COc1cccc(C2=CC(c3ccccc3F)n3ncc(C(=O)Nc4ccc(F)cc4)c3N2)c1 (stereo not given),,inactive: -26.1%
Cc1nc(C(=O)Nc2cc(Cl)ccc2Cl)nn1-c1cc(OC(C)C)c(Cl)cc1Cl,active: 25.1 µM,
CN(C(=O)COC(=O)CCc1c[nH]c2ccccc12)C(c1ccccc1)c1ccccc1,,inactive: -25.6%
Cc1nn(Cc2ccc(C(=O)NC3CCCCC3)o2)c(C)c1Br,"inconclusive: 31.6 µM [activator, single point]",

SMILES,Potency,"max response, negative = inhibition"
CCOCCCNC(=O)C(c1ccc(C)cc1)N(Cc1ccc2c(c1)OCO2)C(=O)c1ccccc1O (stereo not given),"inconclusive: 39.8 µM [activator, single point]",
O=C(CSc1nnc2scc(-c3ccc(Cl)cc3)n12)Nc1ccc(F)cc1,,inactive: -5.17%
Cc1cc2ncn(/N=C/c3cc(Br)ccc3O)c2cc1C,"inconclusive: 12.6 µM [inhibitor, single point]",
c1ccc2c(CNc3ccc(CNc4ncn[nH]4)cc3)cccc2c1,"inconclusive: 31.6 µM [inhibitor, single point]",
CCn1c(CCNC(=O)c2ccc(OC)cc2)nnc1SCc1ccc(Cl)c(Cl)c1,"inconclusive: 39.8 µM [activator, single point]",
COc1cccc(CNC(=O)Cn2nc(C)n3c(cc4cc(C)ccc43)c2=O)c1OC,,inactive: 22.9%
Cc1nn(-c2ccccn2)c2c1C(c1c(F)cccc1Cl)C1=C(N2)c2ccccc2C1=O (stereo not given),active: 25.1 µM,
CCOC(=O)CN(C(=O)CSc1nnc(-c2cccc(OC)c2)o1)c1ccc(F)cc1,"inconclusive: 39.8 µM [activator, single point]",
CCCCN1C(=O)C(O)(CC(=O)c2ccc(CC)cc2)c2cc(Br)ccc21 (stereo not given),,inactive: 7.44%
CCN(C(=O)COC(=O)C(Cc1ccccc1)N1C(=O)c2ccccc2C1=O)C1CCS(=O)(=O)C1 (stereo not given),"inconclusive: 39.8 µM [activator, single point]",
O=C(Nc1nc(-c2ccc(Oc3ccccc3)cc2)cs1)C1=COCCO1,"inconclusive: 20 µM [inhibitor, single point]",
Cc1ccc2c(c1)C(c1ccccc1)N(C(=O)COc1ccc(Cl)cc1Cl)CC(=O)N2 (stereo not given),"inconclusive: 39.8 µM [inhibitor, single point]",
CCOc1ccc2nc(N(Cc3cccnc3)C(=O)c3cccs3)sc2c1,"inconclusive: 39.8 µM [activator, single point]",
CCCCOc1ccc(CNC(=O)NS(=O)(=O)c2ccc(OCC(C)C)cc2)cc1,active: 7.94 µM,
CC(C)c1ccc(/C=N/Nc2cc(N3CCOCC3)nc(N3CCOCC3)n2)cc1,"inconclusive: 39.8 µM [activator, single point]",
CCOC(=O)c1ccccc1NC(=O)c1cccc2c1C(=O)N(C1CCN(C(=O)OCC)CC1)C2,"inconclusive: 31.6 µM [activator, single point]",
N#C/C(=C/c1ccc(Sc2nc3ccccc3[nH]2)o1)c1ccccc1F,"inconclusive: 39.8 µM [inhibitor, single point]",
Cc1nc2ccc(NC(=O)N3CCC(c4ccccc4)C3)cc2nc1C (stereo not given),"inconclusive: 25.1 µM [activator, single point]",
COc1ccc(C(=O)Oc2c(Sc3ccccc3)c(C)nn2-c2ccccc2)c(OC)c1,,inactive: -0.792%
COc1cccc(N2CCN(C(=O)c3cnc4c(-c5ccc(F)cc5)c(C)nn4c3C)CC2)c1,"inconclusive: 25.1 µM [activator, single point]",
